In paper PMC7269909:
No constants are given. Whether binding was seen depends on the method and setting. In cells and extracts the contact can be indirect. Some results given as binding are weak or reduced against the parent protein; the word gives no strength. For some of these results: Sequences can lack the tags named with a protein.

Sequences of proteins named here, by UniProt entry; tags and fusion partners are left off. A change or cut given only in a name is not applied to a line headed by its entry. A line that says so, or that is headed by a name, gives the form on record, which may keep a tag or linker. Residues count along the entry.
UniProt Q8TB45: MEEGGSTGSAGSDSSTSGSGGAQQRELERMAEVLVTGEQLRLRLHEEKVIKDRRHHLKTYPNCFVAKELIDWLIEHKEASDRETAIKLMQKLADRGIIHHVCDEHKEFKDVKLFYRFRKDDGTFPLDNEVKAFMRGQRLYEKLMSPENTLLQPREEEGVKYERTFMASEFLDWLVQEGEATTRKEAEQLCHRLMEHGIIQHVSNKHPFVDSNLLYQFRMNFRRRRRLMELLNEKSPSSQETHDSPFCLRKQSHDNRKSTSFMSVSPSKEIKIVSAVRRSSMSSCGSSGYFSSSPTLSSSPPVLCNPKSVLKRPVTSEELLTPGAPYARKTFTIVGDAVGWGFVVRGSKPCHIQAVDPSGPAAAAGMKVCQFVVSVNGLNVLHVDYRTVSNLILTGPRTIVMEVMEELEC
GFP-tagged DEPTOR DEP (1-329): residues 1-329 of Q8TB45
GST-fused PDZ domain of DEPTOR: residues 330-407 of Q8TB45

Legend:
[1] = target: T1, FLAG-tagged LRRC4 (human) (UniProt Q9HBW1); assay: co-IP; transfected HEK293 or U251 cells lysed in IP buffer (25 mM Tris pH 7.5, 150 mM NaCl, 1% Triton X-100, 1 mM EDTA); antibody at 4 °C overnight, Protein A/G magnetic beads 2 h at 4 °C, four washes; western blot
T1 sequence: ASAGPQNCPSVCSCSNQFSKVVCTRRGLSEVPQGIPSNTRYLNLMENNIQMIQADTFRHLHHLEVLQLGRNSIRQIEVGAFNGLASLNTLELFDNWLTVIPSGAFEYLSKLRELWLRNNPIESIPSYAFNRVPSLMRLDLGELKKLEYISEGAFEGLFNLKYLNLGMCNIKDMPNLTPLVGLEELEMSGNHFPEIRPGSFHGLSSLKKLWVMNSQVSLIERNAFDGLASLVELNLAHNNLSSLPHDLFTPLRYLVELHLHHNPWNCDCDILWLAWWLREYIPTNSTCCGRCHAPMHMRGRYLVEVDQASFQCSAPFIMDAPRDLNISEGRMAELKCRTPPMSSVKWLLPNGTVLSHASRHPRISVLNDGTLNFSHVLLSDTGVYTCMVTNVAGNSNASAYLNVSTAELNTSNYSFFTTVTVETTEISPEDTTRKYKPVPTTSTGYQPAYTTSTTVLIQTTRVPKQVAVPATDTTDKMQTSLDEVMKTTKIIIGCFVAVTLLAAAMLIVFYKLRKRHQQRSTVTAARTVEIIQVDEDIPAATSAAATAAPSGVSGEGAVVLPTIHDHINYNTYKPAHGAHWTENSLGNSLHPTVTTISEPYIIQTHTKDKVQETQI

[2] = target: T2, FLAG-tagged LRRC4 (443-653) (human) (UniProt Q9HBW1); assay: as above
T2 sequence: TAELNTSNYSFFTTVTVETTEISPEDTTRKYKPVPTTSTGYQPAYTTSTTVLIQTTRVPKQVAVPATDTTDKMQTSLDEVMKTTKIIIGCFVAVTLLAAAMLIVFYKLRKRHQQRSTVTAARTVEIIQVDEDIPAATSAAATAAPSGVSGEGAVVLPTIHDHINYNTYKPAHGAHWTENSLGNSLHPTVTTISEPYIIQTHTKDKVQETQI

GFP-tagged DEPTOR = GFP-tagged DEPTOR (UniProt Q8TB45); assay: as above
[3] = target: GFP-tagged DEPTOR PDZ(330-407) (UniProt Q8TB45); assay: as above
[4] = target: GFP-tagged DEPTOR DEP (1-329) (UniProt Q8TB45); assay: as above
[5] = target: GST-fused full-length DEPTOR (UniProt Q8TB45); assay: pull-down; purified GST fusion proteins of DEPTOR on glutathione-Sepharose 4B beads incubated 4 h with lysate of HEK293 cells transfected with FLAG-tagged LRRC4, IP buffer, four washes; western blot; only the target purified
[6] = target: GST-fused PDZ domain of DEPTOR (UniProt Q8TB45); assay: as above

endogenous DEPTOR (from UniProt Q8TB45 1-409)
binding [1]: binds

DEPTOR (pCDNA3.1-DEPTOR) (from UniProt Q8TB45 1-409)
binding [2]: binds

B1: LRRC4 of Fig. 6b (protein, UniProt Q9HBW1 39-653)
chain: ASAGPQNCPSVCSCSNQFSKVVCTRRGLSEVPQGIPSNTRYLNLMENNIQMIQADTFRHLHHLEVLQLGRNSIRQIEVGAFNGLASLNTLELFDNWLTVIPSGAFEYLSKLRELWLRNNPIESIPSYAFNRVPSLMRLDLGELKKLEYISEGAFEGLFNLKYLNLGMCNIKDMPNLTPLVGLEELEMSGNHFPEIRPGSFHGLSSLKKLWVMNSQVSLIERNAFDGLASLVELNLAHNNLSSLPHDLFTPLRYLVELHLHHNPWNCDCDILWLAWWLREYIPTNSTCCGRCHAPMHMRGRYLVEVDQASFQCSAPFIMDAPRDLNISEGRMAELKCRTPPMSSVKWLLPNGTVLSHASRHPRISVLNDGTLNFSHVLLSDTGVYTCMVTNVAGNSNASAYLNVSTAELNTSNYSFFTTVTVETTEISPEDTTRKYKPVPTTSTGYQPAYTTSTTVLIQTTRVPKQVAVPATDTTDKMQTSLDEVMKTTKIIIGCFVAVTLLAAAMLIVFYKLRKRHQQRSTVTAARTVEIIQVDEDIPAATSAAATAAPSGVSGEGAVVLPTIHDHINYNTYKPAHGAHWTENSLGNSLHPTVTTISEPYIIQTHTKDKVQETQI
binding (GFP-tagged DEPTOR): binds

B2: LRRC4 (pCDNA3.1-LRRC4) (protein, UniProt Q9HBW1 39-653)
chain: ASAGPQNCPSVCSCSNQFSKVVCTRRGLSEVPQGIPSNTRYLNLMENNIQMIQADTFRHLHHLEVLQLGRNSIRQIEVGAFNGLASLNTLELFDNWLTVIPSGAFEYLSKLRELWLRNNPIESIPSYAFNRVPSLMRLDLGELKKLEYISEGAFEGLFNLKYLNLGMCNIKDMPNLTPLVGLEELEMSGNHFPEIRPGSFHGLSSLKKLWVMNSQVSLIERNAFDGLASLVELNLAHNNLSSLPHDLFTPLRYLVELHLHHNPWNCDCDILWLAWWLREYIPTNSTCCGRCHAPMHMRGRYLVEVDQASFQCSAPFIMDAPRDLNISEGRMAELKCRTPPMSSVKWLLPNGTVLSHASRHPRISVLNDGTLNFSHVLLSDTGVYTCMVTNVAGNSNASAYLNVSTAELNTSNYSFFTTVTVETTEISPEDTTRKYKPVPTTSTGYQPAYTTSTTVLIQTTRVPKQVAVPATDTTDKMQTSLDEVMKTTKIIIGCFVAVTLLAAAMLIVFYKLRKRHQQRSTVTAARTVEIIQVDEDIPAATSAAATAAPSGVSGEGAVVLPTIHDHINYNTYKPAHGAHWTENSLGNSLHPTVTTISEPYIIQTHTKDKVQETQI
binding [3]: binds
binding [4]: no binding

B3: FLAG-tagged LRRC4 (protein, UniProt Q9HBW1 39-653)
chain: ASAGPQNCPSVCSCSNQFSKVVCTRRGLSEVPQGIPSNTRYLNLMENNIQMIQADTFRHLHHLEVLQLGRNSIRQIEVGAFNGLASLNTLELFDNWLTVIPSGAFEYLSKLRELWLRNNPIESIPSYAFNRVPSLMRLDLGELKKLEYISEGAFEGLFNLKYLNLGMCNIKDMPNLTPLVGLEELEMSGNHFPEIRPGSFHGLSSLKKLWVMNSQVSLIERNAFDGLASLVELNLAHNNLSSLPHDLFTPLRYLVELHLHHNPWNCDCDILWLAWWLREYIPTNSTCCGRCHAPMHMRGRYLVEVDQASFQCSAPFIMDAPRDLNISEGRMAELKCRTPPMSSVKWLLPNGTVLSHASRHPRISVLNDGTLNFSHVLLSDTGVYTCMVTNVAGNSNASAYLNVSTAELNTSNYSFFTTVTVETTEISPEDTTRKYKPVPTTSTGYQPAYTTSTTVLIQTTRVPKQVAVPATDTTDKMQTSLDEVMKTTKIIIGCFVAVTLLAAAMLIVFYKLRKRHQQRSTVTAARTVEIIQVDEDIPAATSAAATAAPSGVSGEGAVVLPTIHDHINYNTYKPAHGAHWTENSLGNSLHPTVTTISEPYIIQTHTKDKVQETQI
binding [5]: binds
binding [6]: binds
